Reference: article PMC6928942
Results are given in words; binding and its absence hold for the method and conditions named. In cells and extracts the contact can be indirect. Some results given as binding are weak or reduced against the parent protein; the word gives no strength. For some assays here: Tags and fused reporters may be left off the sequences shown. One block for each substance: values may come before it.

Amino acid sequences for entries named in this document (tags omitted). A change or cut given only in a name is not applied to a line headed by its entry. Chains listed by the source or under a name are the forms on record and can include a tag or linker.
UniProt P0CX25: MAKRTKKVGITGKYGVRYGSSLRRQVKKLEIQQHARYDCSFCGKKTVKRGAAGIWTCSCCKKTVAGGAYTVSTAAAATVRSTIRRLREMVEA
rpl43BΔM-HA (P0CX25, form named): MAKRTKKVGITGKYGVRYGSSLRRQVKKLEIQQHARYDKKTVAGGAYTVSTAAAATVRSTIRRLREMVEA
UniProt Q12522: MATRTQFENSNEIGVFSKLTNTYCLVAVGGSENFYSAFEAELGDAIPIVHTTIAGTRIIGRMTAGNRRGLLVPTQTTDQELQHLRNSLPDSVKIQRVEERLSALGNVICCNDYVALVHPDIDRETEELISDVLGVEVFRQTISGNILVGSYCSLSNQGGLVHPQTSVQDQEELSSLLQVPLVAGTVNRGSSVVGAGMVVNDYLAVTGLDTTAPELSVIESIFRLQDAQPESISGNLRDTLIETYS

What was measured:
[1] = target: T1, Brx1-TAP (S. cerevisiae) (UniProt Q08235); assay: co-IP; Brx1-TAP immunoprecipitated from yeast to purify pre-60S; Rpl43 mutants detected by blot
T1 sequence: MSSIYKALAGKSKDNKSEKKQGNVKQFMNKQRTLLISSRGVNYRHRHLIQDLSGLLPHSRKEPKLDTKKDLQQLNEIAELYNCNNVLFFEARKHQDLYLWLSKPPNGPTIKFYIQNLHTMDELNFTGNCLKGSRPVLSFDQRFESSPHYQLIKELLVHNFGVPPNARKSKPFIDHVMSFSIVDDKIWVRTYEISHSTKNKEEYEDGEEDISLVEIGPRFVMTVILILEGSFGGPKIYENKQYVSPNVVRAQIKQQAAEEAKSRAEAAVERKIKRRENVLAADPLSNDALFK

[2] = target: T2, MBP-Kap121 (S. cerevisiae) (UniProt P32337); assay: pull-down; MBP-Kap121 immobilized on amylose resins; recombinant GST-Rpl43 variants, Puf6-His6 and Loc1-His6 added separately or in combination; only the target purified
T2 sequence: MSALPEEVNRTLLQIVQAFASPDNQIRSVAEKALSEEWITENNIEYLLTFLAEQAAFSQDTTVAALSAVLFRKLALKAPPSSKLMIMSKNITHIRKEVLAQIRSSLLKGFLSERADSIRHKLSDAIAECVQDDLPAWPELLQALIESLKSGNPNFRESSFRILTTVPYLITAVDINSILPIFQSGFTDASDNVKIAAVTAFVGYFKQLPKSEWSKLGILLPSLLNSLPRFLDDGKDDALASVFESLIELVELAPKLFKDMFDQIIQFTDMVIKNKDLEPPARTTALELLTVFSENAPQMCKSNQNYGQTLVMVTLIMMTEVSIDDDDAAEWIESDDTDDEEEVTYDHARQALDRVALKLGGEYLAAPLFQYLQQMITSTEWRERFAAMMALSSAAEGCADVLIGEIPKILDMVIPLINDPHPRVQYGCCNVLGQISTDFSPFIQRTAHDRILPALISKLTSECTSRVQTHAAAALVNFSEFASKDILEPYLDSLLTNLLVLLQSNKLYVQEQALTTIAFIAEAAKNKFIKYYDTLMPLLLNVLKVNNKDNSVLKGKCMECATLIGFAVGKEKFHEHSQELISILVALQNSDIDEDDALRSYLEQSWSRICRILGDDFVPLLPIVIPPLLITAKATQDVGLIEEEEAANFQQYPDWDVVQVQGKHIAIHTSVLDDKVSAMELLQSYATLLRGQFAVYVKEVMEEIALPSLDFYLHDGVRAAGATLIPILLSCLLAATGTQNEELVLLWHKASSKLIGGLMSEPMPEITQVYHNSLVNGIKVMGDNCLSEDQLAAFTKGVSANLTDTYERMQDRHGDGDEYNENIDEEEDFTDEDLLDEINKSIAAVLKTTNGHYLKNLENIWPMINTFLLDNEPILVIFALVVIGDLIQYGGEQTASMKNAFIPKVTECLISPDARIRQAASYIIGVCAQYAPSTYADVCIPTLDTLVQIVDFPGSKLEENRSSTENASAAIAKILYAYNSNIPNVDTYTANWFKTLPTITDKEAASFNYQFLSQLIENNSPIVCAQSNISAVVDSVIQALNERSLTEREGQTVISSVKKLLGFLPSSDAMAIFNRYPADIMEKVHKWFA

[3] = target: T3, Arx1-TAP (S. cerevisiae) (UniProt Q03862); assay: co-IP; TAP-tagged transacting factors immunoprecipitated from yeast lysate to purify pre-90S and pre-60S particles at different stages; Puf6, Loc1 and Rpl43 detected by Western blotting
T3 sequence: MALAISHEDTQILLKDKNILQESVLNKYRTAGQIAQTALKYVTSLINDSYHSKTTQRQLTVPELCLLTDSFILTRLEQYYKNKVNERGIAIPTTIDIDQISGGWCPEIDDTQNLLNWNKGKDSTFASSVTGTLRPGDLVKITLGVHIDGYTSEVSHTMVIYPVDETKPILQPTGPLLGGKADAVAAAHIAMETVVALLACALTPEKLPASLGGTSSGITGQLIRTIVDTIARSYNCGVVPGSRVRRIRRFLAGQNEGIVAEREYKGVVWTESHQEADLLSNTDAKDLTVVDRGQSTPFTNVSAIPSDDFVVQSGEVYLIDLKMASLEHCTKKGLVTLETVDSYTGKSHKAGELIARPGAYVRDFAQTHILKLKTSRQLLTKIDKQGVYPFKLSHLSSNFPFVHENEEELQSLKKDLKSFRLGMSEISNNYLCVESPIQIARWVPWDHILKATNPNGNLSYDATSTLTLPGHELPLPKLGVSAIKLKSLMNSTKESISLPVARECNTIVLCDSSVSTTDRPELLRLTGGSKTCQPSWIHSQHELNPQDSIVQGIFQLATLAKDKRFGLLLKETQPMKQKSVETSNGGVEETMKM

[4] = target: T4, Noc4-TAP (S. cerevisiae) (UniProt Q06512); assay: as above
T4 sequence: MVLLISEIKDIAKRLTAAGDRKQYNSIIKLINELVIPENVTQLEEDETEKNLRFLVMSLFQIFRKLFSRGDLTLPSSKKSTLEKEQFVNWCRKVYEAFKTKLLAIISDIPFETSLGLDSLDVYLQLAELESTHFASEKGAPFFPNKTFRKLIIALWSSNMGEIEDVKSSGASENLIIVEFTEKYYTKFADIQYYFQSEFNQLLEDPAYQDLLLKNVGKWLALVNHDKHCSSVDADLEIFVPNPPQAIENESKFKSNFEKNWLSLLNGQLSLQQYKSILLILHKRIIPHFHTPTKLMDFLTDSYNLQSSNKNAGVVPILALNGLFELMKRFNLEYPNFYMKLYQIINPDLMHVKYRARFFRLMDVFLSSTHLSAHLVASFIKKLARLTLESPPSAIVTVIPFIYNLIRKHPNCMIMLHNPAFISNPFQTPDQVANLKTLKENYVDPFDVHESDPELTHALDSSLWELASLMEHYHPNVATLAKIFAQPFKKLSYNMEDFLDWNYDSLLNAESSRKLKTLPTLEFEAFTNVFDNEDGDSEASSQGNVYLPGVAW

[5] = target: T5, Nop56-TAP (S. cerevisiae) (UniProt Q12460); assay: as above
T5 sequence: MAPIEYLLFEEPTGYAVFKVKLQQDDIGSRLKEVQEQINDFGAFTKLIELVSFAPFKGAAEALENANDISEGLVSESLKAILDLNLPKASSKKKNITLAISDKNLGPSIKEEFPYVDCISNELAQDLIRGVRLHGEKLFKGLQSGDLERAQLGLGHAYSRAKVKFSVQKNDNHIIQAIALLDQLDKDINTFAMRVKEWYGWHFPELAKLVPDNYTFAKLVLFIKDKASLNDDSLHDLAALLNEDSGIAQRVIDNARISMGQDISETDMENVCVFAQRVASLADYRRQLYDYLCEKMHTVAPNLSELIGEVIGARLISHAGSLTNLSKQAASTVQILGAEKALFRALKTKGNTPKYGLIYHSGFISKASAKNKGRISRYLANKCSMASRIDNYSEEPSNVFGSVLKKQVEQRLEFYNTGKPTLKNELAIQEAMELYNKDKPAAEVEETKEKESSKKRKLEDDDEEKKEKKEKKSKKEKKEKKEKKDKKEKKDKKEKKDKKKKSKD

[6] = target: T6, Rei1-TAP (S. cerevisiae) (UniProt P38344); assay: as above
T6 sequence: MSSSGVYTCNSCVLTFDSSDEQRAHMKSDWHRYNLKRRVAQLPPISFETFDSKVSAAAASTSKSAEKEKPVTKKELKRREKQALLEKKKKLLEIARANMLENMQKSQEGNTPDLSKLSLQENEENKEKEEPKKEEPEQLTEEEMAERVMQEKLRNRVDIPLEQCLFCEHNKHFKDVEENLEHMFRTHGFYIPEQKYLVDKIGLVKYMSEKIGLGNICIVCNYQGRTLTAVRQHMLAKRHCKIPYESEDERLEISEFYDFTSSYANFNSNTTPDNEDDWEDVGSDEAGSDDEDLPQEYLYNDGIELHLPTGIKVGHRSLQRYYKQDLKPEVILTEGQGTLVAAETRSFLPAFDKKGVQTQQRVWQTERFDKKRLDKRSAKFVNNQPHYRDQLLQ

[7] = target: GST-Rpl43 (S. cerevisiae) (UniProt P0CX25); assay: pull-down; GST fusion from E. coli whole-cell extract bound to glutathione beads 1 h 4 °C and washed; E. coli extract with the prey added 1 h 4 °C; TEN100 buffer (20 mM Tris pH 7.4, 0.1 mM EDTA, 100 mM NaCl); Coomassie stain and Western blotting; only the target purified
[8] = target: GST-Rpl43ΔC (S. cerevisiae) (UniProt P0CX25); assay: as above
[9] = target: GST-Rpl43ΔN (S. cerevisiae) (UniProt P0CX25); assay: as above
[10] = target: GST-Rpl43ΔNH (S. cerevisiae) (UniProt P0CX25); assay: as above
[11] = target: Puf6-myc (S. cerevisiae) (UniProt Q04373); assay: co-IP; anti-c-myc antibody (9E10) and protein-A agarose beads on yeast extract, 4 °C, IP buffer (20 mM Tris pH 7.5, 50 mM NaCl, 6 mM MgCl2, 10% glycerol); Western blotting
[12] = target: Tif6-TAP (S. cerevisiae) (UniProt Q12522); assay: co-IP; Tif6-TAP immunoprecipitated from yeast; Puf6 mutants examined

Substance: GST-Rpl43ΔNH (from UniProt P0CX25 35-92) (domain or fragment)
- binding [2]: no binding

Substance: Ribosomal protein large subunit 43 (Rpl43) (from UniProt P0CX25 1-92)
- binding [4]: binds
- binding [5]: binds

Substance: rpl43BΔN-HA (from UniProt P0CX25 22-92) (domain or fragment)
- binding [1]: binds

Substance: GST-Rpl43 (from UniProt P0CX25 1-92)
- binding [2]: binds

Substance: Rpl43B-HA (from UniProt P0CX25 1-92)
- binding [11]: binds

Substance: rpl43BΔC-HA (from UniProt P0CX25 1-73) (domain or fragment)
- binding [1]: no binding

Results, then the substance that gave them:

- binding [1]: binds
Substance: rpl43BΔM-HA (from UniProt P0CX25 1-92)

- binding [2]: binds
Substance: GST-Rpl43ΔN (from UniProt P0CX25 22-92) (domain or fragment)

- binding [2]: binds
Substance: GST-Rpl43ΔC (from UniProt P0CX25 1-73) (domain or fragment)

- binding [3]: no binding
- binding [4]: binds
- binding [5]: binds
- binding [6]: no binding
Substance: Puf6 (from UniProt Q04373 1-656)

- binding [2]: binds
- binding [7]: binds
- binding [8]: binds
- binding [9]: no binding
- binding [10]: no binding
Substance: Puf6-His6 (from UniProt Q04373 1-656)

- binding [12]: binds
Substance: Puf6-myc (from UniProt Q04373 1-656)
